According to patent publication US20070276034A1, “Compounds, compositions and methods for the treatment of synucleinopathies” (priority 2002, published 2007):
Values joined by “and” are separate entries in the source; they are usually repeats but may differ in a detail not shown here. Equal entries are not always repeated. The name of at least one read-out is uncertain.

Legend:
Aβ 1-42 fibrils = target: T1, Aβ 1-42 fibrils (Homo sapiens, UniProt P05067); assay: Congo red binding assay with Aβ 1-42 fibrils; type: biochemical; settings: 3-day incubation
T1 construct: purchased Bachem Inc
Protocol: (§1) In the Congo red binding assay the ability of a test compound to alter amyloid (in this case, Aβ) binding to Congo red is quantified. In this assay, Aβ 1-42 and test compounds were incubated for 3 days and then vacuum filtered through a 0.2 μm filter. The amount of Aβ 1-42 retained in the filter was then quantitated following staining of the filter with Congo red. After appropriate washing of the filter, any lowering of the Congo red color on the filter in the presence of the test compound (compared to the Congo red staining of the amyloid protein in the absence of the test compound) was indicative of the test compound's ability to diminish/alter the amount of aggregated and congophilic Aβ.
In one study, the ability of Aβ fibrils to bind Congo red in the absence or presence of increasing amounts of the compounds or EDTA (at Aβ:test compound weight ratios of 1:1, 1:0.1, 1:0.01 or 1:0.001) was determined.

NAC fibrils = target: T2, NAC fibrils (Homo sapiens, UniProt P37840); assay: Congo red binding assay with NAC fibrils; type: biochemical; settings: 3-day incubation
T2 construct: NAC is a 35-amino acid fragment of α-synuclein; purchased Bachem Inc
Protocol: as §1, with “red binding assay, the ability” for “red binding assay the ability”, “of a given test compound” for “of a test compound”, “this case, NAC) binding to” for “this case, Aβ) binding to”, “this assay, NAC and test” for “this assay, Aβ 1-42 and test”, “amount of NAC retained in” for “amount of Aβ 1-42 retained in”, “and congophilic NAC.” for “and congophilic Aβ.”
In one study, the ability of NAC fibrils to bind Congo red in the absence or presence of increasing amounts of compounds #1, 3, 23, 26, 63, 66, 67, or EDTA (at NAC:test compound weight ratios of 1:1, 1:0.1, 1:0.01 or 1:0.001) was determined.

[1] = Aβ:test compound wt/wt ratio 1:0.001
[2] = Aβ:test compound wt/wt ratio 1:0.01
[3] = Aβ:test compound wt/wt ratio 1:0.1
[4] = Aβ:test compound wt/wt ratio 1:1
[5] = NAC:test compound wt/wt ratio 1:0.01
[6] = NAC:test compound wt/wt ratio 1:0.1
[7] = NAC:test compound wt/wt ratio 1:1
[8] = NAC:test compound wt/wt ratio 1:0.001

T1 sequence (P05067 672-713): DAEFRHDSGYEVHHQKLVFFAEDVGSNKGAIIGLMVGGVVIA

| Compound | % Inhibition Aβ (result ± S.D.), Congo red binding (Aβ 1-42 fibrils; [3]) | % Inhibition Aβ (result ± S.D.), Congo red binding (Aβ 1-42 fibrils; [4]) | % Inhibition NAC (result ± S.D.), Congo red binding (NAC fibrils; [5]) | % Inhibition NAC (result ± S.D.), Congo red binding (NAC fibrils; [6]) | % Inhibition NAC (result ± S.D.), Congo red binding (NAC fibrils; [7]) | % Inhibition Aβ (result ± S.D.), Congo red binding (Aβ 1-42 fibrils; [1]) | % Inhibition Aβ (result ± S.D.), Congo red binding (Aβ 1-42 fibrils; [2]) | % Inhibition NAC (result ± S.D.), Congo red binding (NAC fibrils; [8]) |
| --- | --- | --- | --- | --- | --- | --- | --- | --- |
| Oc1ccc(CCc2ccc(O)c(O)c2)cc1O [Compound 4, 1,2-bis(3,4-dihydroxyphenyl)ethane] | 46.8±1.28% | 73.0±0.90% | – | – | – | 2.3 ± 1.80% | 16.4±2.02% | – |
| O=C(NCc1ccc(O)c(O)c1)C(=Cc1ccc(O)c(O)c1)NC(=O)c1ccc(O)c(O)c1 [Compound 21, α-(3,4-dihydroxybenzamido)-3,4-dihydroxycinnamic acid 3,4-dihydroxybenzyl amide] | 33.9 ± 1.02% | 66.2 ± 1.26% | – | – | – | 3.6 ± 0.58% | 9.3 ± 5.68% | – |
| O=C(Nc1ccc(O)c(O)c1)c1ccc(O)c(O)c1 [Compound 51, 3,4-dihydroxybenzoic acid 3,4-dihydroxyanilide] | 46.7 ± 1.29% | 78.6 ± 1.49% | – | – | – | 6.0 ± 11.47% | 20.5 ± 11.48% | – |
| O=C(CCc1ccc(O)c(O)c1)NCc1ccc(O)c(O)c1 [Compound 58, 3-(3,4-dihydroxyphenyl)propionic acid 3,4-dihydroxybenzylamide] | 21.1 ± 3.67% | 52.2 ± 2.65% | – | – | – | 2.5 ± 4.22% | 6.6 ± 3.49% | – |
| O=C(Nc1ccc(O)c(O)c1)C(=O)Nc1ccc(O)c(O)c1 [Compound 63, oxalic acid bis(3,4-dihydroxyanilide)] | 8.5 ± 8.01% | 32.5 ± 5.66% | 34.0 ± 3.66% | 9.3 ± 10.5% | 54.5 ± 7.56% | 0.0 ± 1.93% | 20.1 ± 10.35% | 0.0 ± 30.84% |
| O=C(CCC(=O)Nc1ccc(O)c(O)c1)Nc1ccc(O)c(O)c1 [Compound 66, succinic acid bis(3,4-dihydroxyanilide)] | 27.7 ± 11.26% | 55.9 ± 6.83% | 51.0 ± 9.50% | 72.4 ± 1.79% | 81.1 ± 1.74% | 0.6 ± 6.61% | 7.7 ± 0.19% | 19.5 ± 37.59% |
| Oc1ccc(CN(Cc2ccc(O)c(O)c2)Cc2ccc(O)c(O)c2)cc1O [Compound 75, tris(3,4-dihydroxybenzyl)amine] | 12.8 ± 0.59% | 59.2 ± 3.23% | – | – | – | 2.4 ± 2.95% | 6.8 ± 2.55% | – |
| O=C(Nc1ccc(O)c(O)c1)Nc1ccc(O)c(O)c1 [Compound 76, 1,3-bis(3,4-dihydroxyphenyl)urea] | 27.8 ± 7.71% | 66.6 ± 0.68% | – | – | – | 0.3 ± 5.1% | 4.1 ± 2.23% | – |
| O=C(NCCc1ccc(O)c(O)c1)Nc1ccc(O)c(O)c1 [Compound 78, 1-(3,4-dihydroxyphenyl)-3-(3,4-dihydroxyphenethyl)urea] | 39.9 ± 3.94% | 71.1 ± 1.09% | – | – | – | 3.5 ± 1.33% | 15.4 ± 1.39% | – |

Continued, in another order:

| % Inhibition Aβ (result ± S.D.), Congo red binding (Aβ 1-42 fibrils; [3]) | % Inhibition Aβ (result ± S.D.), Congo red binding (Aβ 1-42 fibrils; [4]) | % Inhibition NAC (result ± S.D.), Congo red binding (NAC fibrils; [5]) | % Inhibition NAC (result ± S.D.), Congo red binding (NAC fibrils; [6]) | % Inhibition NAC (result ± S.D.), Congo red binding (NAC fibrils; [7]) | Compound | % Inhibition Aβ (result ± S.D.), Congo red binding (Aβ 1-42 fibrils; [1]) | % Inhibition Aβ (result ± S.D.), Congo red binding (Aβ 1-42 fibrils; [2]) | % Inhibition NAC (result ± S.D.), Congo red binding (NAC fibrils; [8]) |
| --- | --- | --- | --- | --- | --- | --- | --- | --- |
| 20.8 ± 2.22% | 63.0 ± 1.63% | – | – | – | Oc1ccc(CN[C@@H]2CCCC[C@H]2NCc2ccc(O)c(O)c2)cc1O (relative stereo) [Compound 12, N,N′-bis(3,4-dihydroxybenzyl)-trans-1,2-diaminocyclohexane] | 4.1 ± 6.60% | 17.9 ± 7.33% | – |
| – | 4.5 ± 2.03% | 36.4 ± 0.67% | 36.7% | 34.4±10.19% | O=C(N[C@@H]1CCCC[C@H]1NC(=O)c1ccc(O)c(O)c1)c1ccc(O)c(O)c1 (relative stereo) [Compound 26, N,N′-bis(3,4-dihydroxybenzoyl)-trans-1,2-diaminocyclohexane] | – | 6.1 ± 4.26% | – |
| 8.0 ± 1.80% | 42.4 ± 1.58% | 40.7 ± 4.23% | 75.9±2.48% | 75.4±2.96% | O=C(c1ccc(O)c(O)c1)C(O)c1ccc(O)c(O)c1 (centres unmarked) [Compound 1, 3,4,3′,4′-tetrahydroxybenzoin] | – | 3.9 ± 0.66% | – |
| 9.7 ± 0.69% | 17.7 ± 1.86% | – | – | – | Cc1nc(-c2ccc(O)c(O)c2)cc(-c2ccc(O)c(O)c2)c1C#N [Compound 8, 4,6-bis(3,4-dihydroxyphenyl)-3-cyano-2-methylpyridine] | 0.0 ± 3.55% | 1.1 ± 0.96% | – |
| 10.9 ± 2.18% | 46.8 ± 1.50% | – | – | – | Oc1ccc(CN2CCN(Cc3ccc(O)c(O)c3)CC2)cc1O [Compound 9, 1,4-bis(3,4-dihydroxybenzyl)piperazine] | 3.1 ± 3.66% | 0.0 ± 2.15% | – |
| 2.9 ± 0.43% | 10.7 ± 2.84% | 25.6 ± 5.37% | 30.3 ± 12.06% | 41.0 ± 8.54% | O=C(c1ccc(O)c(O)c1)N1CCN(C(=O)c2ccc(O)c(O)c2)CC1 [Compound 23, 1,4-bis(3,4-dihydroxybenzoyl)piperazine] | 12.3 ± 6.57% | – | – |
| 12.7 ± 2.35% | 35.4 ± 1.28% | 78.9 ± 4.76% | 71.2 ± 7.17% | 73.8 ± 3.15% | O=C(NCc1ccc(O)c(O)c1)c1ccc(O)c(O)c1 [Compound 52, 3,4-dihydroxybenzoic acid 3,4-dihydroxybenzylamide] | – | – | 0.0 ± 24.43% |
| 14.2 ± 1.56% | 44.8 ± 0.77% | – | – | – | O=C(CCc1ccc(O)c(O)c1)Nc1ccc(O)c(O)c1 [Compound 57, 3-(3,4-dihydroxyphenyl)propionic acid 3,4-dihydroxyanilide] | 0.0 ± 4.73% | 0.1 ± 2.09% | – |
| 24.6 ± 10.85% | 48.9 ± 4.69% | – | – | – | O=C(C=Cc1ccc(O)c(O)c1)NCc1ccc(O)c(O)c1 [Compound 61, 3,4-dihydroxycinnamic acid 3,4-dihydroxybenzylamide] | 0.0 ± 4.06% | 2.0 ± 2.89% | – |
| 13.8 ± 11.25% | 31.5 ± 11.25% | 47.7±8.20% and 39.2 ± 10.25% | 47.7 ± 8.20% | 81.2+/−2.87% | O=C(CCC(=O)NCc1ccc(O)c(O)c1)NCc1ccc(O)c(O)c1 [Compound 67, succinic acid bis(3,4-dihydroxybenzylamide)] | 0.0 ± 4.98% | 8.2 ± 7.08% | 15.5 ± 41.42% |
| 22.6 ± 3.51% | 53.4 ± 1.84% | – | – | – | Oc1ccc(CNCc2ccc(O)c(O)c2)cc1O [Compound 73, bis(3,4-dihydroxybenzyl)amine] | – | 0.6 ± 5.04% | – |
